Measured values published in a compilation of properties of binary mixtures (doi:10.1016/j.molliq.2012.02.004).
Some of these densities may be calculated back from excess volumes.

Experiment: xn = mol fraction of the nth substance listed
Settings: 101 kPa

CC(C)O + CCCCCC[n+]1ccn(C)c1.F[B-](F)(F)F
x1 = 1
Settings	mass density [kg/m3]
293.15 K	785.3
303.15 K	776.8
313.15 K	768
323.15 K	758.8
333.15 K	749.2

CCCCCC[n+]1ccn(C)c1.F[B-](F)(F)F + CC(C)O
mass density [kg/m3]
Settings	x2 = 0	x2 = 0.1493	x2 = 0.2289	x2 = 0.2991	x2 = 0.3752	x2 = 0.4942	x2 = 0.5845	x2 = 0.7067	x2 = 0.762	x2 = 0.9165
293.15 K	1149.2	1129.8	1117.5	1104.9	1089.5	1060.5	1033.5	987.1	961.3	–
303.15 K	1142.5	–	1110.6	1097.9	–	1053.2	–	–	–	854.7
313.15 K	1135.8	1116.1	1103.6	1090.9	1075.3	1046	1018.7	971.8	–	846.5
323.15 K	–	1109.3	–	1083.9	1068.2	1038.8	1011.4	964.1	937.9	838
333.15 K	–	–	1089.8	1076.9	–	1031.5	1003.8	956.3	–	829.2
